Source: PubChem BioAssay (NCATS)
Several values for one entry are separate records, joined by “and”; a condition that tells them apart may be missing. Equal values may be shown once. This list was built around the results that the source calls inconclusive (neither active nor inactive); the mix of calls is not that of the screen. Potencies of inconclusive entries are doubtful fits and often do not repeat. Activity calls are given as the source filed them. Calls come from the whole dose curve; as a rule, active = well fitted cell-killing curve with a large enough effect; inconclusive = small, poorly fitted or top-dose-only effect, or effect the other way; inactive = no such curve, though single readings can be large or run the other way.

Assay: Viability qHTS for spleen associated tyrosine kinase inhibitor (SYKi) naive MV4-11 cells (AID 1963823); note: nearly all actives have a fitted effect of over 40% in size
Conditions: MV4-11 AML viability, CellTiter-Glo luminescence, 72 h; viability (% of control): at 45 µM (top of the series)
Procedure, shortened: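 Read-out: CellTiter-Glo luminescence. Exposure: 72 hr, 37 C, 5% CO2, 95% humidity. Cells: MV4-11 without SYK inhibitor history, 500/well, qHTS format.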
Potency is the fitted concentration of half-maximal effect; tags give direction and shape of the fitted curve.

SMILES	Potency	viability (% of control)
CC(CCC1(O)OC2CC3C4CC=C5C[C@@H](O[C@@H]6O[C@H](CO)[C@@H](O[C@@H]7O[C@@H](C)[C@H](O)[C@@H](O)[C@H]7O)[C@H](O)[C@H]6O[C@@H]6O[C@@H](C)[C@H](O)[C@@H](O)[C@H]6O)CC[C@]5(C)C4CC[C@]3(C)[C@@]2(O)[C@@H]1C)CO[C@@H]1O[C@H](CO)[C@@H](O)[C@H](O)[C@H]1O (some centres undefined)	inconclusive: 4.91 µM [cytotoxic, partial curve]	
COc1ccc(CC(NC(C)=O)C(=O)O)cc1 (centres undefined)	inactive	
c1ccc(-c2n[nH]c3c2oc2ccccc23)cc1	inconclusive: 0.206 µM [cytotoxic, full curve]	
CC(=O)c1c(C)cc2cccc(O)c2c1O[C@@H]1O[C@H](CO)[C@@H](O)[C@H](O)[C@H]1O	inconclusive: 14.3 µM [cytotoxic, partial curve]	
CC(=O)OC1[C@H]2[C@@H](C[C@@H](C)[C@@H]3C=CC(=O)[C@@]13C)OC(=O)[C@@H]2C (some centres undefined)	inconclusive: 8.2 µM [cytotoxic, partial curve]	
CC1=CC2=C(C)C(=O)C(C)(O)C(O)C2CO1 (centres undefined)	inactive	
O=C(NCc1cccs1)c1cc2nc(-c3ccco3)cc(C(F)(F)Cl)n2n1	inconclusive: 20.6 µM [cytotoxic, single point]	
OC[C@H]1O[C@@H](OC(CCCCc2ccc(O)cc2)CCc2ccc(O)cc2)[C@H](O[C@@H]2OC[C@](O)(CO)[C@H]2O)[C@@H](O)[C@@H]1O (some centres undefined)	inconclusive: 0.0034 µM [rising, full curve, poor fit]	
O=C1CC[C@@H](C(=O)N2CSC[C@H]2C(=O)O)N1	inactive	
CO[C@@]12[C@H](COC(N)=O)C3=C(C(=O)C(C)=C(N)C3=O)N1C[C@@H]1N[C@@H]12	active: 119 nM and active: 118 nM	
CC(C)OC(=O)OCOP(=O)(COC(C)Cn1cnc2c(N)ncnc21)OCOC(=O)OC(C)C (centres undefined)	active: 2.31 µM	
COc1cc2c(cc1OC)CN(C(=O)[C@@H](NCc1ccncc1)C(C)(C)C)CC2	inconclusive: 6.51 µM [cytotoxic, partial curve]	
Nc1ncnc2c1nc(N)n2[C@@H]1O[C@H](CO)[C@@H](O)[C@H]1O	inconclusive: 0.411 µM [cytotoxic, full curve]	
CCCCCCCCCCCCCCC[C@H](O)[C@@H](N)CO	inconclusive: 33.5 µM [cytotoxic, single point]	
C[C@@H]1O[C@@H](O[C@H]2[C@H](O)[C@@H](O)[C@H](OC[C@H]3O[C@@H](OC(=O)[C@]45CCC(C)(C)C[C@H]4C4=CCC6[C@@]7(C)C[C@H](O)[C@H](O[C@@H]8O[C@H](CO)[C@@H](O)[C@H](O)[C@H]8O)[C@@](C)(C(=O)O)C7CC[C@@]6(C)[C@]4(C)CC5)[C@H](O[C@@H]4O[C@H](CO)[C@@H](O)[C@H](O)[C@H]4O)[C@@H](O)[C@@H]3O)O[C@@H]2CO)[C@H](O)[C@H](O)[C@H]1O (some centres undefined)		inactive: 103% [at 9.25 µM]
Cn1cc(-c2c[nH]c3ncnc(N4CCOCC4)c23)cn1	inconclusive: 7.31 µM [cytotoxic, partial curve] and active: 13.2 µM	
O=C1c2ccc(Nc3ccc(F)cc3F)cc2CCc2ccc(OCC(O)CO)cc21 (centres undefined)	inconclusive: 13 µM [cytotoxic, partial curve]	
COC(=O)C1(C)CCCC2(C)c3ccc(C(C)C)cc3C(O)C(O)C12 (centres undefined)	inconclusive: 16.1 µM [cytotoxic, single point]	
Fc1ccc(-c2nc(-c3c(F)cccc3F)[nH]c2-c2ccncc2)cc1	inconclusive: 6.51 µM [cytotoxic, full curve]	
COC1C=C([C@@H]2CC=C3[C@@]4(C)C(CC[C@]32C)[C@@]2(C)C=CC(=O)C(C)(C)C2C[C@H]4OC(C)=O)C(=O)O1 (some centres undefined)	inconclusive: 1.12 µM [cytotoxic, full curve]	
O=C(O)[C@H](Cc1ccc(Nc2nccc3ccncc23)cc1)NC1=C(Br)C(=O)C12CCCCC2	inconclusive: 9.2 µM [cytotoxic, partial curve, poor fit]	
CC(C)[C@@H](C(=O)O)N1Cc2c(cc(O)c3c2O[C@]2(C3)[C@H](C)CCC3C(C)(C)[C@H](O)[C@H](O)C[C@@]32C)C1=O (some centres undefined)	inconclusive: 6.32 µM [cytotoxic, partial curve]	
CC(=O)N1CCN(NC(=O)c2ccc(F)cc2)CC1	inactive	
COc1cccc(CNc2ccc(S(=O)(=O)Nc3nc4ccccc4s3)cc2)c1O	inconclusive: 13 µM [cytotoxic, partial curve]	
CS(=O)(=O)c1ccc(-n2nc(C(F)(F)F)cc2-c2ccc(F)cc2)cc1	inconclusive: 16.4 µM [cytotoxic, partial curve, poor fit]	
CNc1ccc([N+](=O)[O-])cc1-n1cnc(-c2ccc(C(F)(F)F)cc2)c1	inconclusive: 13 µM [cytotoxic, partial curve]	
CC(=O)O[C@@H]1[C@H](O[C@@H]2OC[C@](O)(CO)[C@H]2O)[C@@H](O[C@@H]2O[C@@H](C)[C@H](O)[C@@H](O[C@@H]3O[C@H](CO)[C@@H](O)[C@H](O)[C@H]3O)[C@H]2O)[C@H](OC(=O)[C@]23CCC(C)(C)C[C@H]2C2=CCC4[C@@]5(C)C[C@H](O)[C@H](O[C@@H]6O[C@H](C(=O)O)[C@@H](O)[C@H](O)[C@H]6O)[C@@](C)(C(=O)O)C5CC[C@@]4(C)[C@]2(C)CC3)O[C@@H]1C (some centres undefined)		inactive: 95.7% [at 9.25 µM]
C/C=C/C=C/C(=O)N1CC[C@]23c4ccccc4N[C@H]4N(C)c5cccc6c5[C@@]42CCN([C@H]6C2OC2(C)C)[C@H]13 (some centres undefined)	inconclusive: 7.96 µM [cytotoxic, single point]	
C[N+]1(C)CCC(OC(=O)C(O)(c2ccccc2)C2CCCC2)C1 (centres undefined)	inconclusive: 0.0841 µM [rising, full curve]	
